Among all 350,000 compounds or so, about 9,900 (2.8%) were called active. Inconclusive results, whose numbers are uncertain, are shown with a selection of clear calls. Calls follow the shape of the dose curve; as a rule, active = well fitted activation curve with a large enough effect; inconclusive = small, poorly fitted or top-dose-only effect; inactive = no such curve, though single readings can be large or run the other way. No potency is given beside an inconclusive call; the fits are too rough.
Experiment: A quantitative high throughput screen for small molecules that induce DNA re-replication in MCF 10a normal breast cells. Also: nearly all actives have a fitted effect of over 50% in size.
Conditions: MCF 10A DNA re-replication, Hoechst nuclear intensity, 48 h; series mostly up to 46.1 µM
Potency is read from the fitted curve at half-maximal effect; tags tell the direction and shape of the fitted curve.

Row | SMILES | Potency
1 | CC(C)C/C(O)=C/c1nc2cc(Cl)ccc2oc1=O | inconclusive [activator, single point]
2 | Cc1cc(=O)[nH]c(NN)n1 | inactive
3 | COC(CNC(=O)C1CCCN(S(=O)(=O)c2c(C)noc2/C=C/c2cccs2)C1)OC (stereo not given) | active: 3.66 µM
4 | Cc1ccc(OCC(=O)c2ccc3c(c2)CCCC3)cc1C | inconclusive [activator, single point]
5 | Cc1ccc(NC(=O)CN2C(=O)S/C(=C\c3cc(C)n(-c4ccc(C(=O)O)cc4)c3C)C2=O)cc1 | inconclusive [activator, single point]
6 | O=C(COc1ccc(/C=N/NC(=O)c2cc3ccccc3o2)cc1Cl)Nc1ccccc1 | inconclusive [activator, full curve, poor fit]
7 | COc1ccccc1/C=C/C1(C(=O)NC2CCCC2)CC(=O)N1c1ccc(C)cc1 (stereo not given) | active: 18.4 µM
8 | CCOC(=O)c1c(NC(=O)C2C3C=CC(C3)C2C(=O)O)sc2c1CCC(C)C2 (stereo not given) | inconclusive [activator, partial curve, poor fit]
9 | CCOc1ncccc1C(=O)N1CCN(S(=O)(=O)c2ccc(Br)cc2Cl)CC1 | inconclusive [activator, partial curve]
10 | CCn1c(CCNC(=O)c2cccs2)nnc1SCC(=O)Nc1nc(-c2ccccc2)cs1 | inconclusive [activator, single point]
11 | Cc1nnc(NC(=O)c2nc(S(=O)(=O)Cc3ccccc3C)ncc2Cl)s1 | active: 2.59 µM
12 | O=C(Nc1ccccc1C(=O)N/N=C/c1ccco1)c1ccc(Cl)cc1 | inconclusive [activator, partial curve, poor fit]
13 | COc1ccc(S(=O)(=O)Nc2cccc3c2O[C@H](CN(C)C(=O)Nc2ccccc2)[C@@H](C)CN([C@H](C)CO)C3=O)cc1 | inactive
14 | CCCCN1CC(COCc2ccccc2)Oc2cccc(Oc3ccc(C(C)C)cc3)c2S1(=O)=O (stereo not given) | inactive
15 | COCCNc1nc(C)cc(-c2cc(C(=O)NCc3ccccc3)on2)n1 | inactive
16 | Cc1c(C=O)n(C)n(-c2ccccc2)c1=O | inconclusive [activator, partial curve, poor fit]
17 | COc1cc(/C=C2\SC(=S)N(NS(=O)(=O)c3ccc(C)cc3)C2=O)cc(OC)c1OC | inconclusive [activator, single point]
18 | CCOC(=O)N1CCC(NS(=O)(=O)c2cc(C(=O)OC)n(C)c2)CC1 | inactive
19 | COc1ccc2sc(C)[n+](C)c2c1 | inactive
20 | CN[C@H](C)CCC=C(C)C | active: 23.7 µM
21 | O=C(Nc1cc(C(F)(F)F)ccc1Cl)C(Sc1nnc(-c2cccs2)o1)c1ccccc1 (stereo not given) | inactive
22 | COc1ccccc1NC(=O)c1ccc(COc2ccccc2OC)cc1 | inactive
23 | COc1cccc(N(C(=O)c2snc(C(N)=O)c2N)C(C(=O)NCC2CCCO2)c2cccs2)c1 (stereo not given) | inactive

Row | SMILES | Potency
24 | O=C(Nc1ccc(Nc2ccncc2)cc1)c1ccc([N+](=O)[O-])cc1 | inconclusive [activator, partial curve, poor fit]
25 | Nc1cc(=O)[nH]c(SCCOc2ccccc2)n1 | inactive
26 | COc1cc(/C=N/Nc2ccccn2)ccc1O | inactive
27 | Cn1c(=O)c2c(nc(NC3CCCCC3)n2CC(O)COc2ccccc2)n(C)c1=O (stereo not given) | inconclusive [activator, single point]
28 | CCC(=O)N1CCc2cc(S(=O)(=O)NC(C(=O)N3CCN(c4ccc(F)cc4)CC3)C(C)C)ccc21 (stereo not given) | inactive
29 | CCCC(=O)c1cc2c(cc1NC(=O)c1cccs1)OCCO2 | inconclusive [activator, full curve, poor fit]
30 | C#CCOCCOCCOCCNc1nc(N2CCN(C(=O)[C@H]([C@@H](C)CC)n3cc([C@@H](N)CO)nn3)CC2)nc(N2CCN(C(=O)[C@H](Cc3ccc(O)cc3)n3cc([C@@H](N)CC(C)C)nn3)CC2)n1 | inconclusive [activator, partial curve, poor fit]
31 | COc1ccc(C(=O)Nc2ccc3[nH]c(-c4cccc(OC)c4)cc(=O)c3c2)cc1 | active: 0.58 µM
32 | Cc1onc(-c2ccccc2)c1C(=O)NC(=S)NNC(=O)c1ccc(O)cc1O | inconclusive [activator, full curve, poor fit]
33 | COc1cccc(OC)c1-c1nn2c(-c3cc(-c4ccccc4)n[nH]3)nnc2s1 | active: 14.6 µM
34 | Nc1nonc1-n1nnc(C(=O)N/N=C/c2ccccc2)c1CSc1ccccc1 | inconclusive [activator, single point]
35 | CCOC(=O)c1ccc(NC(=O)NCCc2ccccc2OC)cc1 | inconclusive [activator, single point]
36 | Cc1noc(C)c1COC(=O)CNC(=O)c1cccc(F)c1 | inconclusive [activator, single point]
37 | CC(NC(=S)Nc1c(Br)cccc1OC(F)F)C(C)(C)C (stereo not given) | inconclusive [activator, partial curve, poor fit]
38 | Cc1cc(C)n(CC(=O)NC2CCCCC2C)c(=O)c1C#N (stereo not given) | inactive
39 | Cn1nc(C(=O)N2CCN(C(c3ccccc3)c3ccccc3)CC2)c2ccccc2c1=O | inactive
40 | CC(C)(C)OC(=O)NCc1ccc(CNC(=O)c2nc[nH]c2C(=O)N2CCc3ccccc3C2)cc1 | inconclusive [activator, full curve, poor fit]
41 | CCN(CC)CCCNC(=O)c1ccc(OCC(=O)Nc2ccccc2C(F)(F)F)c(OC)c1 | active: 18.4 µM
42 | CC1=CC[C@@]23CCCN2C(=O)CCC[C@H]3C1 | inactive
43 | COc1ccc(OC)c(NC(=O)CCN2CCN(c3ccccc3OC)CC2)c1 | inactive
44 | Cc1ccc(CC(=O)Nc2nc3c(s2)CCCC3)cc1 | inconclusive [activator, partial curve, poor fit]
45 | O=C1c2cc(S(=O)(=O)N(CCO)CCO)ccc2-c2ccc(S(=O)(=O)N(CCO)CCO)cc21 | inactive
